# Some of the results follow.
# How the values were obtained:
# Test in all cases: glycan array binding signal (z-score within array); higher = stronger binding
# Conditions in all cases: glycan notation: IUPAC condensed, linker removed
# Neu5Ac(a2-3)Gal(b1-4)Glc = target: Neu5Ac(a2-3)Gal(b1-4)Glc
# Summary of the method: (§1)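 The binding signal is a Z-score computed within each array. Data were drawn from 3228 arrays in the Consortium for Functional Glycomics database, restricted to those with a known protein sequence. Scores were averaged over arrays of the same protein sequence at different concentrations or buffers, and over linkers, and negative values can be taken as non-binding.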
# [1] = target: Neu5Ac(a2-3)Gal(b1-4)GlcNAc
# Summary of the method: as §1
# [2] = target: Neu5Ac(a2-3)Gal(b1-4)GlcNAc(b1-2)Man
# Summary of the method: as §1
# [3] = target: Neu5Ac(a2-3)Gal(b1-4)GlcNAc(b1-2)Man(a1-3)[GlcNAc(b1-4)][Neu5Ac(a2-3)Gal(b1-4)GlcNAc(b1-2)Man(a1-6)]Man(b1-4)GlcNAc(b1-4)GlcNAc
# Summary of the method: as §1
# [4] = target: Neu5Ac(a2-3)Gal(b1-4)GlcNAc(b1-2)Man(a1-3)[Neu5Ac(a2-3)Gal(b1-4)GlcNAc(b1-2)Man(a1-6)]Man(b1-4)GlcNAc(b1-4)GlcNAc
# Summary of the method: as §1
# [5] = target: Neu5Ac(a2-3)Gal(b1-4)GlcNAc(b1-2)Man(a1-3)[Neu5Ac(a2-3)Gal(b1-4)GlcNAc(b1-2)Man(a1-6)]Man(b1-4)GlcNAc(b1-4)[Fuc(a1-6)]GlcNAc
# Summary of the method: as §1
# [6] = target: Neu5Ac(a2-3)Gal(b1-4)GlcNAc(b1-2)Man(a1-3)[Neu5Ac(a2-6)Gal(b1-4)GlcNAc(b1-2)Man(a1-6)]Man(b1-4)GlcNAc(b1-4)GlcNAc
# Summary of the method: as §1
# [7] = target: Neu5Ac(a2-3)Gal(b1-4)GlcNAc(b1-2)[Neu5Ac(a2-3)Gal(b1-4)GlcNAc(b1-4)]Man(a1-3)[GlcNAc(b1-4)][Neu5Ac(a2-3)Gal(b1-4)GlcNAc(b1-2)[Neu5Ac(a2-3)Gal(b1-4)GlcNAc(b1-6)]Man(a1-6)]Man(b1-4)GlcNAc(b1-4)GlcNAc
# Summary of the method: as §1
# [8] = target: Neu5Ac(a2-3)Gal(b1-4)GlcNAc(b1-2)[Neu5Ac(a2-3)Gal(b1-4)GlcNAc(b1-4)]Man(a1-3)[GlcNAc(b1-4)][Neu5Ac(a2-3)Gal(b1-4)GlcNAc(b1-4)Man(a1-6)]Man(b1-4)GlcNAc(b1-4)GlcNAc
# Summary of the method: as §1
# [9] = target: Neu5Ac(a2-3)Gal(b1-4)GlcNAc(b1-2)[Neu5Ac(a2-3)Gal(b1-4)GlcNAc(b1-6)]Man(a1-6)[Neu5Ac(a2-3)Gal(b1-4)GlcNAc(b1-2)Man(a1-3)]Man(b1-4)GlcNAc(b1-4)GlcNAc
# Summary of the method: as §1
# [10] = target: Neu5Ac(a2-3)Gal(b1-4)GlcNAc(b1-2)[Neu5Ac(a2-3)Gal(b1-4)GlcNAc(b1-6)]Man(a1-6)[Neu5Ac(a2-3)Gal(b1-4)GlcNAc(b1-2)Man(a1-3)][GlcNAc(b1-4)]Man(b1-4)GlcNAc(b1-4)GlcNAc
# Summary of the method: as §1
# [11] = target: Neu5Ac(a2-3)Gal(b1-4)GlcNAc(b1-3)Gal
# Summary of the method: as §1
# [12] = target: Neu5Ac(a2-3)Gal(b1-4)GlcNAc(b1-3)Gal(b1-3)GlcNAc
# Summary of the method: as §1
# [13] = target: Neu5Ac(a2-3)Gal(b1-4)GlcNAc(b1-3)Gal(b1-4)GlcNAc
# Summary of the method: as §1
# [14] = target: Neu5Ac(a2-3)Gal(b1-4)GlcNAc(b1-3)Gal(b1-4)GlcNAc(b1-2)Man(a1-3)[Neu5Ac(a2-3)Gal(b1-4)GlcNAc(b1-3)Gal(b1-4)GlcNAc(b1-2)Man(a1-6)]Man(b1-4)GlcNAc(b1-4)GlcNAc
# Summary of the method: as §1
# [15] = target: Neu5Ac(a2-3)Gal(b1-4)GlcNAc(b1-3)Gal(b1-4)GlcNAc(b1-3)Gal(b1-4)GlcNAc
# Summary of the method: as §1
# [16] = target: Neu5Ac(a2-3)Gal(b1-4)GlcNAc(b1-3)Gal(b1-4)GlcNAc(b1-3)Gal(b1-4)GlcNAc(b1-2)Man(a1-3)[Neu5Ac(a2-3)Gal(b1-4)GlcNAc(b1-3)Gal(b1-4)GlcNAc(b1-3)Gal(b1-4)GlcNAc(b1-2)Man(a1-6)]GalNAc
# Summary of the method: as §1
# [17] = target: Neu5Ac(a2-3)Gal(b1-4)GlcNAc(b1-3)Gal(b1-4)GlcNAc(b1-3)GalNAc
# Summary of the method: as §1
# [18] = target: Neu5Ac(a2-3)Gal(b1-4)GlcNAc(b1-3)Gal(b1-4)GlcNAc(b1-3)[Neu5Ac(a2-3)Gal(b1-4)GlcNAc(b1-3)Gal(b1-4)GlcNAc(b1-6)]GalNAc
# Summary of the method: as §1
# [19] = target: Neu5Ac(a2-3)Gal(b1-4)GlcNAc(b1-3)Gal(b1-4)GlcNAc(b1-6)[Gal(b1-3)]GalNAc
# Summary of the method: as §1
# [20] = target: Neu5Ac(a2-3)Gal(b1-4)GlcNAc(b1-3)Gal(b1-4)[Fuc(a1-3)]GlcNAc
# Summary of the method: as §1
# [21] = target: Neu5Ac(a2-3)Gal(b1-4)GlcNAc(b1-3)GalNAc
# Summary of the method: as §1
# [22] = target: Neu5Ac(a2-3)Gal(b1-4)GlcNAc(b1-3)[Neu5Ac(a2-3)Gal(b1-4)GlcNAc(b1-6)]GalNAc
# Summary of the method: as §1
# [23] = target: Neu5Ac(a2-3)Gal(b1-4)GlcNAc(b1-6)GalNAc
# Summary of the method: as §1
# [24] = target: Neu5Ac(a2-3)Gal(b1-4)GlcNAc(b1-6)[Gal(b1-3)]GalNAc
# Summary of the method: as §1
# [25] = target: Neu5Ac(a2-3)Gal(b1-4)GlcNAc(b1-6)[Neu5Ac(a2-3)Gal(b1-3)]GalNAc
# Summary of the method: as §1
# [26] = target: Neu5Ac(a2-3)Gal(b1-4)GlcNAc6S
# Summary of the method: as §1
# [27] = target: Neu5Ac(a2-3)Gal(b1-4)[Fuc(a1-3)]GlcNAc
# Summary of the method: as §1
# [28] = target: Neu5Ac(a2-3)Gal(b1-4)[Fuc(a1-3)]GlcNAc(b1-2)Man
# Summary of the method: as §1
# [29] = target: Neu5Ac(a2-3)Gal(b1-4)[Fuc(a1-3)]GlcNAc(b1-3)Gal
# Summary of the method: as §1
# [30] = target: Neu5Ac(a2-3)Gal(b1-4)[Fuc(a1-3)]GlcNAc(b1-3)Gal(b1-4)GlcNAc
# Summary of the method: as §1
# [31] = target: Neu5Ac(a2-3)Gal(b1-4)[Fuc(a1-3)]GlcNAc(b1-3)Gal(b1-4)[Fuc(a1-3)]GlcNAc(b1-3)Gal(b1-4)[Fuc(a1-3)]GlcNAc
# Summary of the method: as §1
# [32] = target: Neu5Ac(a2-3)Gal(b1-4)[Fuc(a1-3)]GlcNAc(b1-3)GalNAc
# Summary of the method: as §1
# [33] = target: Neu5Ac(a2-3)Gal(b1-4)[Fuc(a1-3)]GlcNAc(b1-6)[Gal(b1-3)]GalNAc
# Summary of the method: as §1
# [34] = target: Neu5Ac(a2-3)Gal(b1-4)[Fuc(a1-3)]GlcNAc(b1-6)[Neu5Ac(a2-3)Gal(b1-3)]GalNAc
# Summary of the method: as §1
# [35] = target: Neu5Ac(a2-3)Gal(b1-4)[Fuc(a1-3)]GlcNAc6S
# Summary of the method: as §1
# [36] = target: Neu5Ac(a2-3)Gal6S(b1-4)GlcNAc
# Summary of the method: as §1
# [37] = target: Neu5Ac(a2-3)Gal6S(b1-4)[Fuc(a1-3)]GlcNAc
# Summary of the method: as §1
binder,measurement,setting,value
GS14009A-pdi-495-27-495 (Parabacteroides distasonis) (protein) FEEVNTDPDSPTDVPTTNLLAYSLYYTSYRLYDRWFAMDEPMTFCGYASKMTYIDESRYNFRTGVQDTNWEYLYRILNNLKDIEKRATFNETPNMLNVSKVMQVHLMQVATDRWRDVPYTDAAKMTDGILQPKYDKQEDIYPGLLATLKEAADGFADGGSDDLGEGDLLFGGDIEKWQRYCNSMRLRLAMRISEVSPALAKETVEEVMGNPTKYPIMESNDDNAFFWWIGTDPNYYEPMADGYRTRKTEYCAADVIVDHMNTREDPRRSSYFQPTKESVEAGEPKYVGYTIGAKANAVASKYSIWGARFFTDLAGFSPYMRVAEPWFCVAEASMLGWNTGISAEDAYNKAVTYSMEENSVSAEDIADYLANAGKFTNDKKQIYYEEWVAMFKQGMEGWSLYRRTGVPDNLYPAPGRPANYSNHNVPPFRSPYPDKERNLNNANCAPFDAEVVDNLWGKQMWWDTRTGVH,glycan array binding signal (z-score),Neu5Ac(a2-3)Gal(b1-4)Glc,-0.074
same,glycan array binding signal (z-score),[1],-0.348
same,glycan array binding signal (z-score),[2],0.633
same,glycan array binding signal (z-score),[3],0.759
same,glycan array binding signal (z-score),[4],-0.114
same,glycan array binding signal (z-score),[5],0.457
same,glycan array binding signal (z-score),[6],-0.337
same,glycan array binding signal (z-score),[7],-0.473
same,glycan array binding signal (z-score),[8],0.12
same,glycan array binding signal (z-score),[9],0.438
same,glycan array binding signal (z-score),[10],-0.498
same,glycan array binding signal (z-score),[11],-0.438
same,glycan array binding signal (z-score),[12],-0.508
same,glycan array binding signal (z-score),[13],-0.427
same,glycan array binding signal (z-score),[14],-0.54
same,glycan array binding signal (z-score),[15],0.69
same,glycan array binding signal (z-score),[16],1.45
same,glycan array binding signal (z-score),[17],-0.227
same,glycan array binding signal (z-score),[18],-0.779
same,glycan array binding signal (z-score),[19],-0.266
same,glycan array binding signal (z-score),[20],-0.091
same,glycan array binding signal (z-score),[21],0.332
same,glycan array binding signal (z-score),[22],-0.41
same,glycan array binding signal (z-score),[23],-0.512
same,glycan array binding signal (z-score),[24],-0.294
same,glycan array binding signal (z-score),[25],-0.068
same,glycan array binding signal (z-score),[26],-0.58
same,glycan array binding signal (z-score),[27],-0.201
same,glycan array binding signal (z-score),[28],-0.004
same,glycan array binding signal (z-score),[29],-0.797
same,glycan array binding signal (z-score),[30],0.015
same,glycan array binding signal (z-score),[31],-0.333
same,glycan array binding signal (z-score),[32],0.555
same,glycan array binding signal (z-score),[33],0.091
same,glycan array binding signal (z-score),[34],0.048
same,glycan array binding signal (z-score),[35],-0.085
same,glycan array binding signal (z-score),[36],-0.508
same,glycan array binding signal (z-score),[37],-0.595
